Measured values reported in a compilation of properties of binary mixtures.
Some of these densities may be calculated back from excess volumes.

Assay: xn = mol fraction of the nth substance listed
Settings: 101 kPa

CO + CCCC[n+]1ccc(C)cc1.F[B-](F)(F)F
x1 = 1
Settings	mass density [kg/m3]
313.15 K	772.3
323.15 K	762.7

CCCC[n+]1ccc(C)cc1.F[B-](F)(F)F + CO
Settings	mass density [kg/m3]
298.15 K, x2 = 0.5746	1102.1
298.15 K, x2 = 0.7291	1050.3
298.15 K, x2 = 0.7878	1021.2
298.15 K, x2 = 0.8348	991.8
298.15 K, x2 = 0.8805	954.6
298.15 K, x2 = 0.9147	919.9
298.15 K, x2 = 0.9355	895.1
298.15 K, x2 = 0.9442	883.5
298.15 K, x2 = 0.9702	843.8
313.15 K, x2 = 0	1171.9
313.15 K, x2 = 0.6434	1071
313.15 K, x2 = 0.7843	1010.8
313.15 K, x2 = 0.8794	943
313.15 K, x2 = 0.9307	888.2
313.15 K, x2 = 0.9708	829.6
323.15 K, x1 = 0.0153	797.9
323.15 K, x2 = 0	1165.4
323.15 K, x2 = 0.4753	1106.7
323.15 K, x2 = 0.5754	1083.2
323.15 K, x2 = 0.6377	1066.1
323.15 K, x2 = 0.793	998.5
323.15 K, x2 = 0.8434	964.2
323.15 K, x2 = 0.8928	921.9
323.15 K, x2 = 0.9147	898.6
323.15 K, x2 = 0.9366	872.2
323.15 K, x2 = 0.9599	839.7
